Results on 19 compounds are retold here after patent US20200291008A1 (GLAXOSMITHKLINE INTELLECTUAL PROPERTY DEVELOPMENT LIMITED, priority 2017, published 2020).

Where only a bound is given, the exact number is not on record here.

The target of test [1] is indoleamine 2, 3-dioxygenase (IDO1) (Homo sapiens, UniProt P14902). In words: IDO1 PBMC RapidFire MS assay (kynurenine detection by mass spectrometry). It is filed as cell-based. The following applies: human PBMC stimulated with IFN-γ and LPS, 2 days, read-out: PBMC pIC50 (converted). Here is the method:
Compounds of the present invention were tested via high-throughput cellular assays utilizing detection of kynurenine via mass spectrometry and cytotoxicity as end-points. […] Compounds with IDO1 inhibitory properties decreased the amount of kynurenine produced by the cells via the tryptophan catabolic pathway. Cellular toxicity due to the effect of compound treatment was measured using CellTiter-Glo® reagent (CTG) (Promega Corporation, Madison, Wis.), which is based on luminescent detection of ATP, an indicator of metabolically active cells.
In preparation for the assays, test compounds were serially diluted 3-fold in DMSO from a typical top concentration of 1mM or 5 mM and plated at 0.5 μL in 384-well, polystyrene, clear bottom, tissue culture treated plates with lids (Greiner Bio-One, Kremsmunster, Austria) to generate 11-point dose response curves. Low control wells (0% kynurenine or 100% cytotoxicity) contained either 0.5 μL of DMSO in the presence of unstimulated (-IFN-γ/-LPS) PBMCs for the mass spectrometry assay or 0.5 μL of DMSO in the absence of cells for the cytotoxicity assay, and high control wells (100% kynurenine or 0% cytotoxicity) contained 0.5 μL of DMSO in the presence of stimulated (+IFN-γ/+LPS) PBMCs for both the mass spectrometry and cytotoxicity assays.
Frozen stocks of PBMCs were washed and recovered in RPMI 1640 medium (Thermo Fisher Scientific, Inc., Waltham, Mass.) supplemented with 10% v/v heat-inactivated fetal bovine serum (FBS) (Thermo Fisher Scientific, Inc., Waltham, Mass.), and 1× penicillin-streptomycin antibiotic solution (Thermo Fisher Scientific, Inc., Waltham, Mass.). The cells were diluted to 1,000,000 cells/mL in the supplemented RPMI 1640 medium. 50 μL of either the cell suspension, for the mass spectrometry assay, or medium alone, for the cytotoxicity assay, were added to the low control wells, on the previously prepared 384-well compound plates, resulting in 50,000 cells/well or 0 cells/well respectively. IFN- y and LPS were added to the remaining cell suspension at final concentrations of 100 ng/ml and 50 ng/ml respectively, and 50 μL of the stimulated cells were added to all remaining wells on the 384-well compound plates. The plates, with lids, were then placed in a 37° C, 5% CO2 humidified incubator for 2 days.
Following incubation, the 384-well plates were removed from the incubator and allowed to equilibrate to room temperature for 30 minutes. For the cytotoxicity assay, CellTiter-Glo® was prepared according to the manufacturer's instructions, and 40 μL were added to each plate well. After a twenty minute incubation at room temperature, luminescence was read on an EnVision® Multilabel Reader (Perkin Elmer Inc., Waltham, Mass.). For the mass spectrometry assay, 10 μL of supernatant from each well of the compound-treated plates were added to 40 μL of acetonitrile, containing 10 μM of an internal standard for normalization, in 384-well, polypropylene, V-bottom plates (Greiner Bio-One, Kremsmunster, Austria) to extract the organic analytes. Following centrifugation at 2000 rpm for 10 minutes, 10 μL from each well of the acetonitrile extraction plates were added to 90 μL of sterile, distilled H2O in 384-well, polypropylene, V-bottom plates for analysis of kynurenine and the internal standard on the RapidFire 300 (Agilent Technologies, Santa Clara, Calif.) and 4000 QTRAP MS (SCIEX, Framingham, Mass.). MS data were integrated using Agilent Technologies' RapidFire Integrator software, and data were normalized for analysis as a ratio of kynurenine to the internal standard.

Test [2] concerns human peripheral blood mononuclear cells (PBMC). In words: PBMC cytotoxicity assay (CellTiter-Glo). It is filed as cell-based. The following applies: 48 h, human PBMC stimulated with IFN-γ and LPS, 2 days, read-out: PBMC TOX pIC50 (converted). In general terms: In ATP-based viability assays light output follows the ATP content of the culture.

Chain of UniProt P14902 (P14902 whole entry): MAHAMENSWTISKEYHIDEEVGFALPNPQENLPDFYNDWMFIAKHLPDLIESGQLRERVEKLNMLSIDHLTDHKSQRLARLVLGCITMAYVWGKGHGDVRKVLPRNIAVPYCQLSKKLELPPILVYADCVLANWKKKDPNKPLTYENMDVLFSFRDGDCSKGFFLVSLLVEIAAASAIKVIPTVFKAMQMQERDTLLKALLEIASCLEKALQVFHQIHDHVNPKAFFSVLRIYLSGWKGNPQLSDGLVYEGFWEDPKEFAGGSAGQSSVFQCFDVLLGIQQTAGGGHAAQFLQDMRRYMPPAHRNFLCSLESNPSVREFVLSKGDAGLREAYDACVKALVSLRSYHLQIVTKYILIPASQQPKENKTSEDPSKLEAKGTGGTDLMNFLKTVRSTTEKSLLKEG

On to `C[C@@H](c1nc(-c2ccccc2)c[nH]1)C1CCC(c2ccnc3ccccc23)CC1` (stereo partly shown) [Example 32], for which the IC50 is 0.0158 µM in test [1] and more than 10 µM in test [2].
Regarding `CC(C)[C@H](NC(=O)C[C@H]1CC[C@@H](c2ccnc3ccccc32)CC1)C(N)=O` [Example 14], the IC50 in test [1] and in test [2] was more than 10 µM throughout.
Regarding `CC(C)CN(CC(C)C)C(=O)C[C@H]1CC[C@H](c2ccnc3ccccc32)CC1` [Example 2, N,N-diisobutyl-2-(trans-4-(quinolin-4-yl)cyclohexyl)acetamide], the IC50 in test [1] was 3.98 µM; in test [2], more than 10 µM.
Take `CC(C)[C@H](NC(=O)C[C@H]1CC[C@H](c2ccnc3ccccc32)CC1)C(N)=O` [Example 15]: the IC50 in test [1] and in test [2] was more than 10 µM each time.
Take `CC(C)Cc1coc(C[C@H]2CC[C@H](c3ccnc4ccccc43)CC2)n1` [Example 26]: the results for the IC50 in test [1] and in test [2] were 3.98 µM and more than 10 µM, respectively.
On to `CC(C)(C(=O)N[C@H]1CC[C@H](c2ccnc3ccccc32)CC1)c1ccccc1` [Example 43, 2-methyl-2-phenyl-N-(4-(quinolin-4-yl)cyclohexyl)propanamide], for which the IC50 in test [1] and in test [2] was more than 10 µM each time.
As for `O=c1[nH]c2ccccc2n1C[C@H]1CC[C@@H](c2ccnc3ccccc32)CC1` [Example 40], the IC50 in test [1] is 2.51 µM; in test [2], more than 10 µM.
For `C[C@@H](c1nc2ccccc2[nH]1)[C@H]1CC[C@H](c2ccnc3ccccc32)CC1` [Example 20], the IC50 was 0.158 µM in test [1] and more than 10 µM in test [2].
On the same counts, the results for `CC(C)CC(CC(C)C)NC(=O)C[C@H]1CC[C@H](c2ccnc3ccccc32)CC1` [Example 3] are 0.02 µM and more than 10 µM.
`CC(C)CC(CC(C)C)NC(=O)C[C@H]1CC[C@@H](c2ccnc3ccccc32)CC1` [Example 4]: the IC50 in test [1] is 0.126 µM; in test [2] it was more than 10 µM.
As to `CC(C)c1nnc(C[C@H]2CC[C@@H](c3ccnc4ccccc43)CC2)[nH]1` [Example 36, 4-(cis-4-((5-isopropyl-4H-1,2,4-triazol-3-yl)methyl)cyclohexyl) quinoline], in test [2], the IC50 is more than 10 µM.
With `CC(C)c1nnc(C[C@H]2CC[C@H](c3ccnc4ccccc43)CC2)[nH]1` [Example 37, 4-(trans-4-((5-isopropyl-4H-1,2,4-triazol-3-yl)methyl)cyclohexyl)quinoline], the IC50 in test [1] was 6.31 µM; in test [2], more than 10 µM.
Turning to `CC(C)N(CCCO)C(=O)CC1CCC(c2ccnc3ccccc23)CC1` (stereo not shown) [Example 13, N-(3-hydroxypropyl)-N-isopropyl-2-(4-(quinolin-4-yl)cyclohexyl) acetamide], the IC50 in test [1] and in test [2] was more than 10 µM each time.
As to `CC(C)CN(CC(C)C)C(=O)C[C@H]1CC[C@@H](c2ccnc3ccccc32)CC1` [Example 1, N,N-diisobutyl-2-(cis-4-(quinolin-4-yl)cyclohexyl)acetamide], the IC50 in test [1] was 2 µM; in test [2], more than 10 µM.
On to `C[C@H]1CC[C@H](NC(=O)C[C@H]2CC[C@H](c3ccnc4ccccc43)CC2)CC1` [Example 6], for which the figures for the IC50 in test [1] and in test [2] were 0.158 µM and more than 10 µM, respectively.
As to `C[C@@H](c1nc2ccccc2[nH]1)[C@H]1CC[C@@H](c2ccnc3ccccc32)CC1` [Example 19], the IC50 is 0.00501 µM in test [1] and more than 10 µM in test [2].
On to `c1ccc(-c2coc(C[C@H]3CC[C@H](c4ccnc5ccccc54)CC3)n2)cc1` [Example 24, 4-phenyl-2-((trans-4-(quinolin-4-yl)cyclohexyl)methyl)oxazole], for which the IC50 in test [2] was more than 10 µM.
Consider `CC(C)(NC[C@H]1CC[C@@H](c2ccnc3ccccc32)CC1)c1ccccc1` [Example 45, 2-phenyl-N-((cis-4-(quinolin-4-yl)cyclohexyl)methyl)propan-2-amine], for which the IC50 in test [2] is more than 10 µM.
On to `CC(C)C(CO)NC(=O)C[C@H]1CC[C@H](c2ccnc3ccccc32)CC1` (stereo partly shown) [Example 8], for which the IC50 in test [2] is more than 10 µM.
